About 14,000 (4.5%) of roughly 310,000 compounds showed an effect of 50% or more. Effects have a minus sign here. Some of the results follow.
Molecular target: human ether-à-go-go-related gene (hERG) potassium channel (human, UniProt Q12809)
Assay: primary screen, population patch clamp on CHO cells stably expressing hERG
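Note: peak tail current of the secondary pulse compared with the same well before compound.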

Sequence of human ether-à-go-go-related gene (hERG) potassium channel (Q12809 whole entry, looked up): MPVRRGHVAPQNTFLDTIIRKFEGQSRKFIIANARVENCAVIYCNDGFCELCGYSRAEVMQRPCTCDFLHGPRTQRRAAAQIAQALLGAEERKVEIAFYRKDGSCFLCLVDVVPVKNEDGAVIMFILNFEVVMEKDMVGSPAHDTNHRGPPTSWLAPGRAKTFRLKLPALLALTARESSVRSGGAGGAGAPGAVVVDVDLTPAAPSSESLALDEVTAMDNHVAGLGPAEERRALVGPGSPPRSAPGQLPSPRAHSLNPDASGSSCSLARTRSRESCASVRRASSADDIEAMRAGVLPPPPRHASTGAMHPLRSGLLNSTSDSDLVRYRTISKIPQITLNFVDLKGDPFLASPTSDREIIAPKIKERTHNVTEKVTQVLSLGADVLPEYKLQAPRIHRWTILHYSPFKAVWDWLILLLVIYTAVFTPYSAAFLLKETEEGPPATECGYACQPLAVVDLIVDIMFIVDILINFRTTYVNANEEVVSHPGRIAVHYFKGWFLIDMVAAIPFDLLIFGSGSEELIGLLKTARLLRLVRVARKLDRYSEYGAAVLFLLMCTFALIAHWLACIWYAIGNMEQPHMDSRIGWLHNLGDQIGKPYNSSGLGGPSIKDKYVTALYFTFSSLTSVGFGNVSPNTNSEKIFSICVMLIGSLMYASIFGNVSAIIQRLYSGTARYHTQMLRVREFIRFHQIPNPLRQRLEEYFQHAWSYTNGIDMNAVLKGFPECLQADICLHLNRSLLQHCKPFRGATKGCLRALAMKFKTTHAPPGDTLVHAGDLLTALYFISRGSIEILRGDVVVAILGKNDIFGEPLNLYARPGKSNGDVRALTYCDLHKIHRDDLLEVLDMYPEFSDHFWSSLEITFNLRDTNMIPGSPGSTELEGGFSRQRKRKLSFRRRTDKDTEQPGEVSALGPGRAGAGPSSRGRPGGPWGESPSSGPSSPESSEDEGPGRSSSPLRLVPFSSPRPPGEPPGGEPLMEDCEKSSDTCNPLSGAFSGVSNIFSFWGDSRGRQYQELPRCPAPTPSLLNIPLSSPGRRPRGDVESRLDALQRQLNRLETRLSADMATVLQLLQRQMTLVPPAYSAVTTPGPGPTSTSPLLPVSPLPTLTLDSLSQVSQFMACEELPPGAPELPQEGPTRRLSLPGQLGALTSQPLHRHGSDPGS

| SMILES | hERG current change (%, negative = inhibition) at 10uM [%] |
| --- | --- |
| Cc1sc2nc(-c3ccccc3)oc(=O)c2c1C | 9.1 |
| C=CCn1c(C(CCC(C)C)CC(C)(C)O)n[nH]c1=S (centres unmarked) | 21.2 |
| COc1ccc(CCNC(=O)c2ccccc2C(=O)NCCc2ccc(OC)cc2)cc1 | -12 |
| COc1ccc(C(=O)Nc2ccc(NC(=O)C3CC3)nc2)cc1 | 12.1 |
| O=C(NC1CCCc2ccccc21)C1CCN(c2nnc(-n3cccc3)s2)CC1 (centres unmarked) | -6.66 |
| O=C(CNS(=O)(=O)c1ccc(Br)cc1)N1CCN(c2ccc(F)cc2)CC1 | -56.5 |
| CC(C)Cn1c(=S)[nH]c2cc(C(=O)O)ccc2c1=O | 7.25 |
| c1ccc(Cn2cc(CN3CCCO3)c(-c3ccc4c(c3)OCO4)n2)cc1 | 15.9 |
| CC1CC(C)CN(C(=O)Cn2c(=O)c3cccn3c3cccnc32)C1 (centres unmarked) | -4.56 |
| Cc1ccc(Cl)cc1NC(=O)COC(=O)C12CC3CC(CC(C3)C1)C2 | -5.9 |
| Cc1cccc(N(CC(=O)Nc2c(C)n(C)n(-c3ccccc3)c2=O)S(C)(=O)=O)c1C | -0.4 |
| COc1ccc(-n2c(-c3ccco3)nc3c(cnn3-c3ccc(C)cc3)c2=O)cc1 | 1.88 |
| Cc1cc(=O)[nH]c(N/N=C/c2ccc(O)c(O)c2)n1 | 17.5 |
| Cc1ccc2c(c1)N(CC(=O)N1CCCc3ccccc31)C(=O)CO2 | -8.16 |
| CN1CCN(C2Cc3cc(F)ccc3Sc3ccc(Cl)cc32)CC1.O=C(O)/C=C\C(=O)O (centres unmarked) | -44.8 |
| CCOc1ccc(C(=S)N2CCCC2)c(OCC)c1 | 6.17 |
| Cc1ccc(Nc2c(-c3ccc(C)o3)nc3cnccn23)cc1 | 4.98 |
| O=C1COc2ccc(C(=O)COC(=O)c3cc(S(=O)(=O)N4CCOCC4)ccc3F)cc2N1 | -13.3 |
| CCCCSc1nnc(NC(=O)CCc2ccccc2)s1 | -0.77 |

| SMILES | hERG current change (%, negative = inhibition) at 10uM [%] |
| --- | --- |
| COc1ccc(CNC(=O)COC(=O)CCOc2ccc(C)cc2)cc1 | 19 |
| O=c1cc(-c2ccccc2O)nc(-c2ccccc2)[nH]1 | 23.7 |
| COc1ccc(C2CC(C(F)(F)F)n3nc(C(=O)NCCN4CCOCC4)cc3N2)cc1 (centres unmarked) | -11.5 |
| O=C(NCc1ccco1)c1sc2cc(Cl)ccc2c1Cl | 14.5 |
| Cl.NCCCCNCCCN | 16.4 |
| C/C(O)=C(\C#N)c1nc2ccccc2[nH]1 | -1.58 |
| Cc1ccccc1NC(=S)NC12CN3CN(CN(C3)C1)C2 | 13.4 |
| CCCCN(C(=O)c1ccc2c(c1)OCCO2)c1c(N)n(CC(C)C)c(=O)[nH]c1=O | -11.7 |
| Cc1ccccc1NC(=O)c1sc(Cl)nc1C | 9.95 |
| NC(=S)Nc1cc(Cl)ccc1Cl | -7.01 |
| O=C1NC(=Nc2ccccc2Cl)S/C1=C\c1cccc([N+](=O)[O-])c1 | -0.316 |
| COc1cc(C(=O)Nc2cccc(-c3nc4cc(C)ccc4o3)c2C)cc(OC)c1OC | 9.04 |
| CSc1nc2ccccc2nc1N(C)S(=O)(=O)c1ccc(C)cc1 | 17.4 |
| CC1(C)NC(=O)N(CCCC(=O)Nc2ccc(C(F)(F)F)cc2)C1=O | -16.9 |
| CC(C)OC(=O)c1c(NC(=O)c2cnn3c2NC(c2ccccc2)CC3C(F)(F)F)sc2c1CCCC2 (centres unmarked) | 0.121 |
| CC(=O)Oc1ccc(C(=O)[C@H]2[C@H]3C(=O)N(c4ccccc4)C(=O)[C@H]3[C@@H]3C=CC=NN32)cc1 | 8.93 |
| COC(=O)C(O)(CC(=O)c1ccc(OC)cc1)C(F)(F)F (centres unmarked) | 9.08 |
| O=C(CN(C(=O)Cn1nnc(-c2ccc(F)cc2)n1)c1cnc2ccccc2c1)NCC1CCCO1 (centres unmarked) | -24.9 |
| Cl.O=C(COc1ccc(F)cc1)OCCN1CCOCC1 | 12 |

| SMILES | hERG current change (%, negative = inhibition) at 10uM [%] |
| --- | --- |
| COc1cccc(NC(=O)N2CCN(c3cccc(C)c3)C(C)C2)c1 (centres unmarked) | -16 |
| Cc1cc(C)c(C)c(S(=O)(=O)N2CCC(C(=O)NCC(c3ccccc3)N(C)C)CC2)c1C (centres unmarked) | -48.9 |
| CSc1ccc(CN(C)CC(=O)Nc2ccccc2Br)cc1 | 17.3 |
| COC(=O)COc1cc(C)cc2oc(=O)c3c(c12)CCCC3 | -29.7 |
| CCCc1cc(CN(C)C(=O)CC2C(=O)NCCN2Cc2ccccc2C)[nH]n1 (centres unmarked) | 0.823 |
| Cc1ccc2oc(-c3cccc(NC(=S)NC(=O)c4cccs4)c3)nc2c1 | 12.3 |
| CC(C)OC(=O)Nc1ccc(Oc2c(F)c(F)c(F)c(F)c2F)cc1 | -9.33 |
| Cc1ccc(C(=O)NCc2ccc3c(c2)OCO3)cc1S(=O)(=O)N1CCOCC1 | -27.8 |
| Cc1nc2ccccc2c2oc(C(=O)NCC3CCCO3)cc12 (centres unmarked) | -14.2 |
| O=C(NC1CCN(C(=O)NC2CCCCC2)CC1)c1ccco1 | 10.8 |
| CN(C)c1nc(N)nc(/C(C#N)=C/C2CC3C=CC2C3)n1 (centres unmarked) | 1.04 |
| O=C(COC(=O)c1ccc(NS(=O)(=O)c2ccc(F)c(F)c2)cc1)NCC1CCCO1 (centres unmarked) | -1.59 |
| O=C(NCCCN1CCCC1)c1cc2c(Cl)nc3ccccc3c2s1 | -13.9 |
| O=[N+]([O-])c1cc(S(=O)(=O)Nc2cccc(C(F)(F)F)c2)ccc1-n1nnc2ccccc21 | 0.81 |
| COC(=O)c1c(NC(=O)c2ccn(C)n2)sc2c1CCC2 | 20 |
| CC1CCc2c(c3ccccc3n2C(=O)CCl)C1 (centres unmarked) | 14.2 |
| COc1ccc(NC(=O)c2c(NC(=O)CNCc3ccco3)sc3c2CCC3)cc1 | 17.8 |
| CS/C(=C\[N+](=O)[O-])Nc1ccc(F)cc1 | 15.7 |
